Assay results from PubChem BioAssay AID1963576 (National Center for Advancing Translational Sciences (NCATS), 2024).
Hit rate of the full screen: of about 46,000 compounds, about 60 (0.1%) were called active. Not shown: some 3% with an inconclusive outcome. Calls follow the shape of the dose curve; as a rule, active = well fitted inhibition curve with a large enough effect; inconclusive = small, poorly fitted or top-dose-only effect; inactive = no such curve, though single readings can be large or run the other way. The list shows a part of the results.

Assay: Primary qHTS assay for Inhibitors of ovarian cancer metastasis using an organotypic tumor microenvironment (TME) model. Also: nearly all actives have a fitted effect of over 65% in size.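 As to activity change, negative = inhibition: plate controls were DMSO wells for no effect and tomatine positive control wells for full effect.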
Settings: SKOV3ip1-GFP adhesion/invasion on 3D omental model, fluorescence; series mostly up to 45.8 µM; activity change, negative = inhibition: at the top concentration
Procedure, shortened: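 qHTS, 4-pt dose (0.36-46 umol/L); SKOV3ip1-GFP, 1,200 cells/well, no FBS; primary omental fibroblast/mesothelial co-culture 48 h pre-grown; 2 h RT + 16 h 37 C; PBS wash, 4% PFA; GFP count 488/509 nm.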

outcome, inactive:
O=C(CSCc1cnn(-c2ccccc2)c1-n1cccc1)NCc1cccc(Cl)c1, COc1ccc(/C=C\c2onc(C)c2S(=O)(=O)N2CCC(C(=O)Nc3cccc(OC)c3)CC2)cc1, CCOC(=O)c1c(C)[nH]c(C)c1S(=O)(=O)N(C)CC(=O)Nc1ccc(CC)cc1, Cc1ccc(CNC(=O)c2c(C)oc3ncnc(N4CCOCC4)c23)cc1, CC1=C(C(=O)N2CCN(c3ccccc3)CC2)C2(CCCCC2)OC1=O, COc1cc(NC(=O)Cn2c(=O)ccc3cc(S(=O)(=O)N4CCCC4)ccc32)cc(OC)c1, O=C(NCC1(c2ccccc2)CCCC1)C(=O)Nc1cccc(Br)c1, CCc1nn(C(C)C(=O)N2CCN(c3ccccc3)CC2)c(=O)c2cc3occc3n12 (stereo not drawn), Cc1nn2c(=O)cc(COC(=O)c3cccs3)nc2s1, CSc1ccc(CCNC(=O)c2ccc3c(Cl)c4c(nc3c2)CCCC4)cc1, Cc1ccc(Cl)cc1NC(=O)C1CCCN(c2cnccn2)C1 (stereo not drawn), Oc1ccc(NCc2ccccc2OCc2ccc(Cl)cc2)cc1, CC(C)(C)C1CCc2nc(NC(=O)Cc3ccccc3)sc2C1 (stereo not drawn), COc1ccccc1N1C(=O)N(CC(=O)C(C)(C)C)c2ccccc2S1(=O)=O

Activity change, negative = inhibition, inactive:
CCCSc1ncc(Cl)c(C(=O)Nc2sc3c(c2C(=O)OC)CCCC3)n1 5.71%, N#Cc1c(-n2ncnc2-c2ccc(F)cc2)sc2c1CCCCC2 -4.16%, Cc1ccc(-n2nc(C)c(C(=O)O)c2-n2cccc2)cc1 6.3%, COc1ccc(CNC(=O)c2cc3ccccn3n2)cc1OC -6.23%, CCC(C)NC(=O)CCC(=O)N1Cc2ccccc2Oc2ncccc21 (stereo not drawn) -5.24%, CC(C)(C)NC(=O)c1oc2ccccc2c1NC(=O)c1ccccc1F 13.8%, Cc1ccc(S(=O)(=O)Nc2ccc3nc(-c4ccc(F)cc4)oc3c2)cc1 -26.8%, CCc1ccc(-n2c(=O)c3c4c(sc3n(CC(=O)c3ccc(Br)cc3)c2=O)CCC4)cc1 11.1%, CC(C)(C)[C@H](NC(=O)c1ccc(N)c(Cl)c1)C(=O)N1CCC[C@@H]1C(=O)N[C@H](C#N)CC(=O)O 12.1% [at 3.51 µM], O=C(NCc1ccccc1)c1cc2ccc3cccnc3c2[nH]1 1.94%, Cc1ccccc1CCNC(=O)C1CCN(S(=O)(=O)c2ccc3c(ccn3C)c2)CC1 8.88%, Cc1cccc(C)c1NC(=O)Cn1nnc(C(=O)NCc2ccc(F)cc2)c1N 5.41%, CCCN(CCC)C(=O)C(Cc1ccccc1)NS(=O)(=O)c1ccc2c(c1)c(=O)n(C)c(=O)n2C (stereo not drawn) 0.922%, Cc1oc2c(C)c3oc(=O)c(CC(=O)N4CCCCC4)c(C)c3cc2c1C -7.36%, COc1cc(Nc2ncc3c(n2)CCN(Cc2cccc(C)c2)C3)cc(OC)c1 -6.49%, Cn1c(=O)c2c(nc(Oc3ccccc3Cl)n2Cc2ccc(C#N)cc2)n(C)c1=O -4.31%, Cn1nnnc1SCCCNCc1cccc(OCc2ccc(F)cc2)c1 -15.9%, Cc1cccc(N2CCN(C(=O)C3CCN(c4ncnc5c4nc4n5CCCCC4)CC3)CC2C)c1 (stereo not drawn) -18%, COc1ccc(S(=O)(=O)c2c(O)c3ccc(C(=O)Nc4ccccc4)cc3[nH]c2=O)cc1 -0.082%, CCc1ccccc1NC(=O)Cn1nc(C(F)(F)F)c2c1CCC2 -4.13%, Cc1cc(C)c2c(CC(=O)Nc3ccccc3C(F)(F)F)coc2c1 -12%, CCCSc1ncc(Cl)c(C(=O)Nc2nc3ccc(C)cc3s2)n1 -2.88%, O=C(CCn1c(=O)c2ccccc2n(Cc2cccc(Cl)c2)c1=O)NCCc1ccccc1 -0.919%, CCOC(=O)c1ccccc1NC(=O)Cn1c(=O)n(Cc2nc(C)no2)c(=O)c2ccccc21 -3.35%, CN(c1ccccc1C(=O)O)S(=O)(=O)c1ccc2[nH]c(=O)oc2c1 10.8%, CN(C)c1ccc(C(CNS(=O)(=O)c2ccc(Cl)cc2)N2CCOCC2)cc1 (stereo not drawn) 4.18%, O=C(NCc1ccccc1)C(=O)NCC(c1ccco1)S(=O)(=O)c1cccs1 (stereo not drawn) -0.494%, Cc1cccc(NC(=O)C2CCN(c3nnc(C)c4c(C)n(-c5ccccc5)nc34)CC2)c1C 2.5%, CCc1nn(CC(=O)Nc2cccc(C(C)=O)c2)c(=O)c2cc3sccc3n12 -2.12%, CCOC(=O)c1c(NC(=O)C2c3ccccc3Oc3ccccc32)sc(C)c1CC 0.74%, COc1cc(Nc2nc3c(S(=O)(=O)c4ccc(C)c(C)c4)nnn3c3ccsc23)cc(OC)c1 -1.39%, Cc1ccc(OCC(=O)Nc2nnc(S(=O)(=O)N3CCCCCC3)s2)cc1 10.6%, O=C(NCc1ccc(F)cc1)C1(c2cccs2)CCOCC1 0.326%, COC(=O)c1ccccc1NC(=O)N1CCC(N2CCN(Cc3ccc(F)cc3)C(=O)C2=O)CC1 3.95%, CCn1c(=O)cc(OCC(=O)N(C)c2cc(Cl)ccc2C)c2ccccc21 6.77%, O=C1CN(C(=O)COc2ccc(Cl)cc2Cl)C(c2ccccc2)c2cc(F)ccc2N1 (stereo not drawn) -29.3%, CN(C)CCNC(=O)c1ccc(-c2nn(C)c(=O)c3ccccc23)cc1 16.4%, CSc1ccc(-c2nc3cccc(C)n3c2Nc2ccc(Cl)cc2)cc1 4.08%, Cc1ccc(Cn2cnc3nc4c(cc3c2=O)CC(C)CC4)cc1 (stereo not drawn) 9.11%, COc1cccc(C(=O)Nc2nnc(S(=O)(=O)N3CCCC3)s2)c1 12%, CC(C)c1ccc(S(=O)(=O)c2cnc(SCC(=O)Nc3ccc4c(c3)OCCO4)[nH]c2=O)cc1 2.4%, Cc1cccc(C(=O)NNc2ncnc3c2cnn3-c2ccc(C)cc2C)c1 -2.3%, O=C(O)c1ccc(NC(=O)c2cc(S(=O)(=O)N3CCCCC3)c(Cl)cc2Cl)cc1 -10.1%, CCOc1ccccc1CNC(=O)CCCn1ccc2cc(S(=O)(=O)N3CCCC3)ccc21 3.33%, Nc1cccc2c1C(=O)N(C1CCC(=O)NC1=O)C2=O (stereo not drawn) -7.83%, CCOc1ccc(CCNC(=O)c2nn(C)c3c2CSc2ccccc2-3)cc1 4.16%, Cc1ccc(Nc2c(C(C)C)c(C)c(C#N)c3nc4ccccc4n23)cc1 -18%, CCCNC(=O)CN1C(=O)CSc2ccc(S(=O)(=O)N3CCC(C)CC3)cc21 -6.97%, COc1ccc2c(c1)CCc1c(C(=O)Nc3c(C)nn(Cc4ccccc4)c3C)noc1-2 -8.88%
